# Several values for one entry are separate records, joined by “and”; a condition that tells them apart may be missing. Equal values may be shown once. The inconclusive results got no clear call from the source; some entries with a clear call stand among them for comparison. For part of these data: A potency beside an inconclusive call is a rough fit, not a confirmed value. Activity calls are given as the source filed them. The call rests on the fitted dose curve; in most records, active means well fitted curve in the direction sought with a large enough effect; inconclusive means small, poorly fitted or top-dose-only effect, or another doubt; inactive means no such curve, though single readings can be large; an effect the other way counts as inactive or inconclusive.
# Tests used:
# [1] = target: Furin (Homo sapiens) (UniProt P09958); experiment: Furin counterscreen qHTS for Zika virus inhibitors (AID 1347149); settings: furin enzymatic counterscreen, fluorogenic substrate; activity change, negative = inhibition: at 114 µM (top of the series); further: nearly all actives have a fitted effect of over 70% in size; further: potency means the concentration at half of the fitted maximal effect;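 on activity change, negative = inhibition: purified recombinant full-length human furin enzyme at 5 nM; fluorescence gain from furin cutting a BOC-RVRR-AMC peptide substrate over 15 min; top concentration of the series differs between compounds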
# How it was run: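 Counterscreen measures cleavage of 2 microM BOC-RVRR-AMC, below its ~15 microM Km, by 5 nM full-length human furin at pH 7.0 after a 15-min compound preincubation. Inhibition derives from the 15-min fluorescence increase at 37C.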
# [2] = ZIKV-mCherry secondary qHTS for Zika virus inhibitors (AID 1347158); settings: Vero cells, ZIKV-mCherry infection imaging, 48-72 h; activity change, negative = inhibition: at 49.2 µM (top of the series); further: potency means the concentration at half of the fitted maximal effect; on activity change, negative = inhibition: top concentration of the series differs between compounds
# How it was run: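 This orthogonal imaging screen measured ZIKV-mCherry infection of Vero cells exposed to compound, MOI 1, 48-72 h. Percent infection came from segmented nuclei scored mCherry-positive above 3 SD of negative controls.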
# [3] = system: Zika virus NS2B-NS3 protease (linked); experiment: 384 well plate NINDS AMC confirmatory qHTS for Zika virus inhibitors (AID 1347163); further: potency means the concentration at half of the fitted maximal effect; nearly all actives have a fitted effect of over 50% in size
# How it was run: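 Enzyme (5, 30 or 60 nM final) first met test compounds for ~15 min. The AMC-tagged peptide Ac-VKTGKR-AMC followed at 30 microM. Fluorescence was then recorded at 25 min and scaled against no-enzyme and no-inhibitor wells.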
# [4] = system: Zika virus NS2B-NS3 protease (linked construct); experiment: 384 well plate NINDS Rhodamine confirmatory qHTS for Zika virus inhibitors (AID 1347164); further: potency means the concentration at half of the fitted maximal effect; nearly all actives have a fitted effect of over 65% in size
# How it was run: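 Cleavage of Ac-LKRR-Rhodamine 110 (10 microM final) by linked protease (final 5, 30 or 60 nM) was followed as fluorescence at 485/538 nm after 25 min, room temperature, dark. Compounds preincubated ~15 min.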
# [5] = Tertiary RLuc qRT-PCR qHTS assay for Zika virus inhibitors (AID 1347169); further: nearly all actives have a fitted effect of over 55% in size; further: potency means the concentration at half of the fitted maximal effect; on activity change, negative = inhibition: top concentration of the series differs between compounds
# How it was run: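 Inhibition of ZIKV-RLuc replication in Vero cells, read as Renilla luminescence 1-1.5 hrs after live-cell substrate addition, following 48-72 hrs infection at MOI 1-2 in presence of compound.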
# [6] = Confirmatory screen GU Rhodamine qHTS for Zika virus inhibitors qHTS (AID 1347157); further: nearly all actives have a fitted effect of over 70% in size
# How it was run: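 Enzyme 25 nM in Tris-HCl pH 8.0 + 0.01% Tween 20; compounds up to 114 microM, 15 min RT dark; + Rhod110 substrate 1.5 microM; read t0 and 15 min; delta fluorescence → % inhibition → 4-parameter Hill fit.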
# [7] = system: Zika virus NS2B-NS3 protease (unlinked complex); experiment: Primary screen GU Rhodamine qHTS for Zika virus inhibitors: Unlinked NS2B-NS3 protease assay (AID 1347159); further: potency means the concentration at half of the fitted maximal effect; nearly all actives have a fitted effect of over 60% in size
# How it was run: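 Buffer 10 mM Tris-HCl pH 8.0, 0.01% Tween 20. Unlinked protease 25 nM; compound preincubation 15 min, RT, protected from light. Substrate Rhod110, 1.5 microM; ~15% conversion in 15 min.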
# [8] = system: Zika virus NS2B-NS3 protease (linked construct); experiment: Primary screen NINDS Rhodamine qHTS for Zika virus inhibitors (AID 1347160); further: potency means the concentration at half of the fitted maximal effect; nearly all actives have a fitted effect of over 55% in size
# How it was run: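 Aprotinin served as in-plate control. Conditions: 25 nM linked NS2B-NS3, pH 8.0 Tris buffer, titrated compounds, 15 min preincubation and 15 min reaction with 1.5 microM Rhod110 substrate at room temperature.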
# [9] = UWB1.289 Cancer Cell Toxicity qHTS against the NCATS CANVASS Library (AID 1347347); further: nearly all actives have a fitted effect of over 60% in size
# How it was run: (§1)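 In this cytotoxicity screen, 1000 cells per well rested 4 hours, then received compound (11 concentrations) for a 72-hour incubation; an ATP-dependent luminescent signal (CellTiter-Glo) was the endpoint.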
# [10] = Panc-1005 Cancer Cell Toxicity qHTS against the NCATS CANVASS Library (AID 1347349); further: nearly all actives have a fitted effect of over 60% in size
# How it was run: as §1
# [11] = U-118MG Cancer Cell Toxicity qHTS against the NCATS CANVASS Library (AID 1347351)
# How it was run: as §1
# [12] = A2780 Cisplatin Sensitive Ovarian Cancer Cell Toxicity qHTS against the NCATS CANVASS Library (AID 1347353); further: potency means the concentration at half of the fitted maximal effect; nearly all actives have a fitted effect of over 60% in size
# How it was run: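 Quantitative HTS format: eleven compound concentrations applied to pre-seeded cells, 72 h incubation at 37 °C, then ATP detection by luminescence.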
# [13] = system: NAD(P)H diaphorase (Clostridium kluyveri); experiment: Diaphorse counterscreen qHTS: Assay Interference Panel against the NCATS CANVASS Library (AID 1347362); further: potency means the concentration at half of the fitted maximal effect
# How it was run: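 Clostridium kluyveri diaphorase in PBS with 0.01% Tween-20 was preincubated 15 min at room temperature in the dark with compounds (11-point series). Resorufin fluorescence (ex 525/20, em 598/25) was read 5 min after adding resazurin/NADH.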
# [14] = qHTS for Hypoxia signaling pathway (HIF-1) antagonists against the NCATS CANVASS Library (AID 1347374)
# How it was run: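 Beta-lactamase reporter under HRE control in ME-180 cells; CoCl2 stimulus (60 uM solution as added), compounds 11-pt qHTS, 17 h 37C. CCF4 dye 2 h RT, 460/530 nm emission. CellTiter-Glo viability in same wells.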
# [15] = DH5-alpha competent E. coli microbial cell viability qHTS against the NCATS CANVASS Library (AID 1347377); settings: viability signal change, negative = cytotoxic: at 46.1 µM (top of the series); further: potency means the concentration at half of the fitted maximal effect
# How it was run: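 Overnight incubation at 37C, 5% CO2 of E. coli DH5-alpha (diluted to 0.2 OD) with compounds precedes BacTiter-Glo addition. Luminescence, acquired after 20 min at room temperature, reflects viable-cell ATP.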
# [16] = qHTS for Inflammasome Signaling Inhibitors: IL-1-beta AlphaLISA screen against the NCATS CANVASS Library (AID 1347379);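 further: human THP-1 cells primed with LPS then triggered with ATP; secreted IL-1B measured as AlphaLISA emission at 615 nm; lower signal means less IL-1B release which is the wanted effect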
# How it was run: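 THP-1, 1 hr compound pre-incubation, then LPS 250 ng/mL + ATP 1.25 mM (final); 16 hr total with compound; IL-1B AlphaLISA, ex 680/em 615 nm; 11-point qHTS, up to 57.5 uM final.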
# [17] = qHTS for Antimalaria activity screened against the NCATS CANVASS Library (AID 1347380); further: potency means the concentration at half of the fitted maximal effect; nearly all actives have a fitted effect of over 40% in size
# How it was run: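 Measures proliferation or cytotoxicity against Dd2 blood stages in 72 h cultures, 11-point qHTS dosing, with SYBR Green fluorescence as read-out; dihydroartemisinin titration served as control.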
# [18] = qHTS for Activators of p53 Stress Response Pathway screened against the NCATS CANVASS Library (AID 1347388); further: potency means the concentration at half of the fitted maximal effect
# How it was run: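 p53RE-bla HCT-116 cells (4000/well) were plated 5 h at 37C, exposed to compounds for 16 h at 37C over an 11-point concentration series, then loaded with CCF4 for 2 h at room temperature; 460/530 nm emission ratio read.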
# [19] = qHTS assay for small molecule disruptors of mitochondrial membrane potential screened against the NCATS CANVASS Library (AID 1347389); further: nearly all actives have a fitted effect of over 60% in size
# How it was run: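 Cells (HepG2) seeded the day before received compound or DMSO for 1 hr, then Mito-MPS dye for 30 min at 37C; emission at 590 nm over 535 nm gave the polarization signal.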
# [20] = qHTS for inhibitors of ER calcium dysfunction: SERCaMP assay screened against the NCATS CANVASS Library (AID 1347393); settings: SH-SY5Y GLuc-SERCaMP (Gaussia luciferase released on ER calcium loss) secretion, thapsigargin, luminescence; activity change, negative = inhibition: at 76.6 µM (top of the series) unless noted;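 further: lower secreted reporter signal means inhibitor of ER calcium depletion; nearly all actives have a fitted effect of over 40% in size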
# How it was run: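 qHTS in SH-SY5Y reporter cells: 16 h compound pretreatment, 4 h thapsigargin, then secreted Gaussia luciferase measured by luminescence.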
# [21] = Vero-766 cells viability qHTS against the NCATS CANVASS Library: Counterscreen for Zika virus inhibition assay (AID 1347394); settings: Vero 766 viability, CellTiter-Glo luminescence, 72 h; series mostly up to 46.1 µM
# How it was run: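 Counterscreen for toxicity: Vero 766 cells exposed 72 h to an 11-point compound series, viability by CellTiter-Glo.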
# [22] = qHTS for inhibitors of Wild type Zika virus screened against the NCATS CANVASS Library (AID 1347396); further: potency means the concentration at half of the fitted maximal effect
# How it was run: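 Vero 766 cells, 1000/well, o/n attach; cpds pin-transferred (11-pt qHTS); WT Zika added; 72 h, 37C, 5% CO2; CellTiter Glo lumi. Uninfected + vehicle = 100% inhibition.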
# [23] = Primary redox qHTS assay for identification of artifact compounds. (AID 1845223); further: potency means the concentration at half of the fitted maximal effect
# How it was run: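 Redox-cycling detection via DTT (250 uM final) oxidation coupled to Amplex Red (25 uM)/HRP (250 mU/mL) in HBSS. 15 min preincubation plus 30 min after DTT, room temperature. Ex/Em 525/598 nm; 4-parameter Hill fit against DMSO and 10 uM DA3003.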
# [24] = Confirmatory screen NINDS Rhodamine qHTS for Zika virus inhibitors (AID 1347161)
# How it was run: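 Purified linked NS2B-NS3 protease (NS2B hydrophilic domain joined to NS3 protease by flexible linker), 25 nM in 10 mM Tris-HCl pH 8.0, 0.01% Tween 20. Compounds titrated, 15 min preincubation at room temperature; 1.5 microM Rhodamine110 substrate, FITC fluorescence change over 15 min.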
# Tags describe the fitted curve by direction and shape.
# Sequence of UniProt P09958 (P09958 whole entry, looked up): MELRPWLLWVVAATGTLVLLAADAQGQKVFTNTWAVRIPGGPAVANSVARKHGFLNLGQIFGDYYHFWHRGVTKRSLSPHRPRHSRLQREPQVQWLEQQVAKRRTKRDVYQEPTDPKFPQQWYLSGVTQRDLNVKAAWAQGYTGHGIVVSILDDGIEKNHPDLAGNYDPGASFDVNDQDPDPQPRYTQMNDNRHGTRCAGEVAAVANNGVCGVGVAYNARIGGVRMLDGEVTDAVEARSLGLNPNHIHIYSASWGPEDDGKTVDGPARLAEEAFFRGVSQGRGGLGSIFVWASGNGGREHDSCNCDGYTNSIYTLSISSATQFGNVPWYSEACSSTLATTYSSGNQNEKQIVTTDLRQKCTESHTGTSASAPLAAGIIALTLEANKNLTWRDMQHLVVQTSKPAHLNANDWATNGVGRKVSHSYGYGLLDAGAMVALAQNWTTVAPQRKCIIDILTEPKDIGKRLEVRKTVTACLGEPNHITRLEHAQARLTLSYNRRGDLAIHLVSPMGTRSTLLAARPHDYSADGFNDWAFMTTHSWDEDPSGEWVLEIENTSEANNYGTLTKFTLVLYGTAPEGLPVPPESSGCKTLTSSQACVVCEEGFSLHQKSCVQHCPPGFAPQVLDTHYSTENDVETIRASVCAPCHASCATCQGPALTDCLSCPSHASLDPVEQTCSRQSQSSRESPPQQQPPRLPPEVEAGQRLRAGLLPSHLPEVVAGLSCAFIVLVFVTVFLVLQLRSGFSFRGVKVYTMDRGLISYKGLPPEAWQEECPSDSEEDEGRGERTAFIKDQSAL
structure (smiles),measurement,setting,value
N#Cc1ccccc1OCC1CN(Cc2cccc(C(F)(F)F)c2)C(=O)c2c(ccnc2-c2ccc(OCC(=O)O)cc2)O1 (configuration not stated),Potency,[1],inactive
same,Potency,[2],inactive
same,Potency,[3],active: 70.8 µM
same,Potency,[4],active: 56.2 µM
same,Potency,[5],inactive
Cc1ccc(-c2cc(C(F)(F)F)c(C#N)c(SCC(=O)O)n2)cc1,Potency,[1],"inconclusive: 93.6 µM [inhibitor, partial curve, poor fit]"
same,Potency,[2],inactive
same,Potency,[3],active: 141 µM
same,Potency,[5],"inconclusive: 35.5 µM [inhibitor, partial curve, poor fit]"
Nc1cc(N)c(N=Nc2ccc(S(=O)(=O)Nc3nccs3)cc2)cc1N=Nc1ccc(S(=O)(=O)Nc2nccs2)cc1,Potency,[1],active: 39.8 µM
same,Potency,[2],"inconclusive: 2.51 µM [inhibitor, full curve, poor fit]"
same,Potency,[4],active: 20 µM
same,Potency,[5],inactive
O=C(Nc1ccccc1C(=O)OCc1cc(=O)n2nc(C3CC3)sc2n1)c1ccc(Cl)cc1,Potency,[1],active: 41.8 µM
same,Potency,[6],inactive
same,Potency,[5],inactive
C/C(=C\CC/C(C)=C/CC[C@]1(C)CCc2cc(O)cc(C)c2O1)CC/C=C(\C)C(=O)O,Potency,[1],inactive
same,Potency,[2],inactive
same,Potency,[7],active: 8.91 µM
same,Potency,[8],"inconclusive: 10 µM [inhibitor, partial curve, poor fit] and active: 2.2 µM"
same,Potency,[5],inactive
same,Potency,[9],inactive
same,Potency,[10],inactive
same,Potency,[11],inactive
same,Potency,[12],"inconclusive: 37.2 µM [cytotoxic, single point]"
same,Potency,[13],"inconclusive: 24.3 µM [inhibitor, partial curve]"
same,Potency,[14],"inconclusive: 29.8 µM [inhibitor, single point]"
same,Potency,[15],"inconclusive: 20.9 µM [rising, partial curve, poor fit]"
same,Potency,[16],inactive
same,Potency,[17],"inconclusive: 0.0042 µM [cytotoxic, full curve]"
same,Potency,[18],"inconclusive: 29.5 µM [activator, single point]"
same,Potency,[19],inactive
same,Potency,[20],inactive
same,Potency,[21],"inconclusive: 37.1 µM [cytotoxic, single point]"
same,Potency,[22],"inconclusive: 36.9 µM [inhibitor, single point]"
same,Potency,[23],"inconclusive: 10.3 µM [activator, single point]"
O=C(Nc1ccccc1)c1ccc2c(O)c(S(=O)(=O)c3ccc(Cl)cc3)c(=O)[nH]c2c1,Potency,[1],inactive
same,Potency,[24],active: 14.1 µM
same,Potency,[4],"inconclusive: 56.2 µM [inhibitor, full curve, poor fit]"
O=c1oc2ccc3ccccc3c2cc1-c1nnc(Nc2cccc(C(F)(F)F)c2)s1,Potency,[1],inactive
same,Potency,[24],"inconclusive: 50.1 µM [inhibitor, partial curve, poor fit]"
same,Potency,[5],inactive
